# Assay results published in PubChem BioAssay AID445 (National Center for Advancing Translational Sciences (NCATS), 2006).
# Screen size: about 110,000 compounds; about 40 (0.04%) were called active. The shares of active, inactive and inconclusive entries below differ from those in the screen. Calls come from the whole dose curve; as a rule, active = well fitted curve in the direction sought with a large enough effect in the signal ratio (not every such curve was filed as active); inconclusive = small, poorly fitted or top-dose-only effect, or a change in a side signal; inactive = flat fitted curve, though single readings scatter; the % refers to the signal ratio. A potency beside an inconclusive call is a rough fit, not a confirmed value.
# Experiment: IkB Signaling;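 for IkBa stabilization activation: 0% = basal untreated cells and 100% = reference inhibitor full response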
# Settings: ABC-DLBCL IkBa-CBG/CBR dual luciferase ratio (green luciferase fused to IkBa over red control in OCI-Ly3 lymphoma cells), 4 h, scaled: untreated 0%
# Method in brief: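 In this assay, an IκBα–CBG68 fusion accumulates when IKK-driven degradation is blocked; native CBR normalizes for cell number. OCI-Ly3 cells were treated 4 h with compound and doxycycline, then green and red light read after Chroma-Glo addition.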
# [1] = IkBa stabilization activation: at 57.1 µM (top of the series), proteasome inhibitor 100% unless noted
# Potency is the fitted concentration of half-maximal effect.
structure (smiles),measurement,setting,value
COc1cccc(CNC(=O)CCc2c(C)nn(-c3ccc(N4CCOCC4)nn3)c2C)c1,IkBa stabilization activation,[1],inactive
CCOC(=O)CNc1ncnc2c1nnn2C,IkBa stabilization activation,[1],inactive
Cn1c(C(=O)N2CCN(C(=O)c3ccco3)CC2)cc2c(=O)n3ccccc3nc21,IkBa stabilization activation,[1],inactive
Cc1nc2cnc(N3CCOCC3)nc2n(C)c1=O,IkBa stabilization activation,[1],"inactive: 2.25% [at 11.4 µM, scaled: untreated 0%, proteasome inhibitor 100%]"
O=C1c2ccccc2C(=O)N1c1ccc(-c2nc3ccccc3o2)cc1,IkBa stabilization activation,[1],inactive
COc1cccc(-c2cc(C(=O)Nc3ccc(F)cc3)[nH]n2)c1,Potency,[1],"inconclusive: 0.316 µM [signal inhibitor, partial curve]"
CC(C)OC(=O)CSc1nnc(-c2ccco2)n1N,IkBa stabilization activation,[1],inactive
Cc1cc(C)cc(OCCSc2nc(-c3ccc(C(C)(C)C)cc3)nc3cc(=O)[nH]n23)c1,IkBa stabilization activation,[1],inactive
COc1cc(NC(=O)CSc2ccc(-c3sc(-c4ccccc4)nc3C)nn2)cc(OC)c1,IkBa stabilization activation,[1],inactive
CCC(=O)N1c2ccccc2CC1C(=O)NCCc1ccc(OC)cc1OC (stereo not drawn),IkBa stabilization activation,[1],inconclusive: -2.85% [signal inhibitor]
CCc1cccc(-n2c(=O)c3cccnc3n2CC(=O)Nc2ccccc2C(=O)OC)c1,IkBa stabilization activation,[1],inconclusive: 3.2% [signal inhibitor]
CCOc1ccc(NC(=O)c2ccc3nc(Cc4ccccc4)oc3c2)cc1,IkBa stabilization activation,[1],inconclusive: 1.84% [signal inhibitor]
Cc1ccccc1C(=O)Nc1ccc(Cl)cn1,Potency,[1],"inconclusive: 20 µM [signal inhibitor, partial curve]"
CC(=O)N1CCCc2cc(S(=O)(=O)N(CC(C)C)CC(C)C)ccc21,IkBa stabilization activation,[1],inactive
Cc1ccc(-n2nnnc2SCC(=O)N2CCc3ccccc3C2)c(C)c1,IkBa stabilization activation,[1],inconclusive: 7.19% [signal inhibitor]
CC1C(=O)N2CCCc3cc(S(=O)(=O)Nc4ccc(Br)cc4F)cc1c32 (stereo not drawn),IkBa stabilization activation,[1],inconclusive: 1.04% [signal inhibitor]
CSc1ccc2c(c1)[C@H](N1CCN(C)CC1)Cc1ccccc1S2,IkBa stabilization activation,[1],inconclusive: 0.408% [signal inhibitor]
same,IkBa stabilization activation,"at 25.6 µM (top of the series), proteasome inhibitor 100%",inactive: 1.48%
same,IkBa stabilization activation,"at 57.1 µM (top of the series), proteasome inhibitor 100%",inactive: -9.46%
O=C(Cn1c(=O)oc2cc(S(=O)(=O)NCc3ccccc3)ccc21)N(CCO)Cc1ccccc1,IkBa stabilization activation,[1],inconclusive: 1.32% [signal inhibitor]
Cn1c(SCC(=O)N2CCOCC2)nc2sc3c(c2c1=O)CCCC3,IkBa stabilization activation,[1],inactive
CCOc1ccccc1NC(=O)CSc1nc2c(c(=O)n1C)SC(C)C2 (stereo not drawn),IkBa stabilization activation,[1],inactive
CCCC(=O)Nc1nc2c(s1)CC(C(C)(C)C)CC2 (stereo not drawn),IkBa stabilization activation,[1],inactive
Cc1ccc(Cn2c3ccccc3c3cnn(CC(=O)N4CCCCCC4)c(=O)c32)cc1,IkBa stabilization activation,[1],inconclusive: 1.27% [signal inhibitor]
Cc1ccc(CN2C(=O)CC(c3ccc(Cl)cc3)c3c(C)nn(-c4nc(C)cc(C)n4)c32)cc1 (stereo not drawn),IkBa stabilization activation,[1],inactive
Cc1ccccc1-c1ccc2ncnc(NCCN3CCOCC3)c2c1,IkBa stabilization activation,[1],"inactive: 2% [at 11.4 µM, scaled: untreated 0%, proteasome inhibitor 100%]"
COC(=O)c1ccc(NC(=O)CSc2nccn2Cc2ccc(Cl)cc2)cc1,IkBa stabilization activation,[1],inconclusive: 2.44% [signal inhibitor]
Cc1cc(O)c(C(c2ccccc2)N2CCN(c3ccccc3F)CC2)c(=O)n1Cc1ccco1 (stereo not drawn),IkBa stabilization activation,[1],inconclusive: 2.62% [signal inhibitor]
CCOc1ccccc1-n1nnnc1SCc1nc2ccccc2s1,IkBa stabilization activation,[1],inconclusive: 16.4% [signal inhibitor]
CCC(=O)N1CCc2cc(Br)cc(S(=O)(=O)CCC(=O)NCc3ccc(C)cc3)c21,IkBa stabilization activation,[1],inconclusive: 0.11% [signal inhibitor]
COc1ccc(CNC(=O)C(=O)Nc2ccccc2OC)cc1,Potency,[1],"inconclusive: 15.8 µM [signal inhibitor, partial curve]"
O=C(C1CC1)n1cc(C(=S)N2CCOCC2)c2ccccc21,IkBa stabilization activation,[1],inactive
Cc1ccc2nsnc2c1S(=O)(=O)N1CCN(Cc2ccc3c(c2)OCO3)CC1,IkBa stabilization activation,[1],inactive
COc1ccc(CCN2C(=O)c3[nH]nc(-c4ccccc4O)c3C2c2ccc(C)cc2)cc1OC (stereo not drawn),IkBa stabilization activation,[1],inconclusive: -4.62% [signal inhibitor]
CCOC(=O)C1C(=O)NC(N2CCOCC2)=NC1c1ccco1 (stereo not drawn),IkBa stabilization activation,[1],inactive
CCOc1ccccc1N(C)C(=O)c1cc(S(=O)(=O)NCc2ccc(C)cc2)ccc1F,IkBa stabilization activation,[1],inconclusive: 2.83% [signal inhibitor]
CCc1cccc(NC(=O)Cn2c(=O)n(Cc3ccccc3)c(=O)c3c(C)c(C(=O)N(C)C)sc32)c1,IkBa stabilization activation,[1],inconclusive: 1.66% [signal inhibitor]
CCc1nn2c(=O)cc(COC(=O)c3cccc(NC(=O)COc4ccccc4F)c3)nc2s1,Potency,[1],"inconclusive: 31.6 µM [signal inhibitor, single point]"
N#CC1=C(O)CCCn2c1nc1ccccc1c2=O,IkBa stabilization activation,[1],inconclusive: 17.6% [signal inhibitor]
CCc1ccc2c(c1)c(=O)c(S(=O)(=O)c1ccccc1)cn2CC(=O)Nc1cc(C)ccc1C,IkBa stabilization activation,[1],inactive
CCC(=O)C1=C(c2cccc([N+](=O)[O-])c2)N(C(=O)CC)n2c(nnc2C2CCCCC2)S1,IkBa stabilization activation,[1],inconclusive: -0.101% [signal inhibitor]
CCOC(=O)C1CCN(c2csc3ccc(C)cc3c2=O)CC1,IkBa stabilization activation,[1],inconclusive: 11.5% [signal inhibitor]
CC(C)(C)OC(=O)N1CCC(c2c(C(=O)N3CCN(c4ccccc4F)CC3)cnn2C(C)(C)C)CC1,IkBa stabilization activation,[1],inconclusive: 1.81% [signal inhibitor]
CCOc1ccc2[nH]c(=O)c(CN(Cc3cccnc3)C(=O)Nc3ccccc3OC)cc2c1,IkBa stabilization activation,[1],inconclusive: -0.265% [signal inhibitor]
COc1ccc(CNC(=O)c2cc(-c3cccc(OC)c3)on2)cc1,IkBa stabilization activation,[1],inactive
CCN1CCN(c2cc(C)c3cc(NC(=O)c4cc(OC)c(OC)c(OC)c4)ccc3n2)CC1,IkBa stabilization activation,[1],inactive
O=C(CCC1CCCC1)c1c(O)c2ccccc2oc1=O,Potency,[1],"inconclusive: 5.01 µM [signal inhibitor, partial curve]"
CCc1ccc2oc(C(=O)N(Cc3cccc(Cl)c3)Cc3ccco3)c(C)c2c1,IkBa stabilization activation,[1],inconclusive: 0.458% [signal inhibitor]
CCOC(=O)c1[nH]c(CSc2nnnn2-c2ccccc2C)c(C(=O)OCC)c1C,IkBa stabilization activation,[1],inactive
O=C(Cn1c2ncccc2c(=O)n1-c1ccccc1)Nc1cccc(C(F)(F)F)c1,IkBa stabilization activation,[1],inconclusive: 10.6% [signal inhibitor]
COc1ccc(CNC(=O)c2ccc(NC(=O)N3CCSc4ncccc43)cc2)c(OC)c1,IkBa stabilization activation,[1],inconclusive: 3.51% [signal inhibitor]
C(=C\c1ccccc1)/C=N/n1cnnc1,IkBa stabilization activation,[1],inactive
CCOc1ccc2oc(=O)cc(CN3CCN(C(=O)c4cccc(Cl)c4)CC3)c2c1,IkBa stabilization activation,[1],inconclusive: 0.219% [signal inhibitor]
CC(=O)[C@@]1(O)CC[C@@H]2[C@@H]3CCC4=CC(=O)CC[C@@]4(C)[C@H]3CC[C@]21C,IkBa stabilization activation,[1],inconclusive: 3.77% [signal activator]
Cc1ccc(NC(=O)CCC(C(=O)O)N2C(=O)c3ccccc3C2=O)cc1 (stereo not drawn),IkBa stabilization activation,[1],inactive
Cc1ccc(-n2nc(-c3cccs3)cc2C(=O)NCC2CCCO2)c(C)c1 (stereo not drawn),IkBa stabilization activation,[1],inconclusive: 1.76% [signal inhibitor]
N#Cc1nc(COc2ccc(-c3ccccc3)cc2)oc1NCc1cccnc1,IkBa stabilization activation,[1],inconclusive: -3.69% [signal inhibitor]
COC(=O)c1ccccc1NC(=O)c1sc2nc(C)cc(C)c2c1NC(=O)c1ccccc1Cl,IkBa stabilization activation,[1],inactive
COc1ccc(NC(=O)c2cc(C(C)=O)n3ccccc23)cc1Cl,Potency,[1],inconclusive: 12.6 µM
CCOC(=O)c1cccc(NC(=O)C2CCN(S(=O)(=O)c3c(C)noc3/C=C/c3ccc(C)cc3)CC2)c1,IkBa stabilization activation,[1],inconclusive: -0.633% [signal inhibitor]
CCCCCCn1c(CN2CCN(CCO)CC2)nc2c1c(=O)n(C)c(=O)n2C,IkBa stabilization activation,[1],inactive
O=C(Cc1ccccc1)Nc1sc2c(c1C(=O)Nc1ccccc1Cl)CCCC2,IkBa stabilization activation,[1],inconclusive: 5.27% [signal inhibitor]
CN1[C@H]2CC(OC(=O)[C@H](CO)c3ccccc3)C[C@H]1[C@H]1O[C@H]12 (stereo partly drawn),IkBa stabilization activation,[1],inactive
COc1ccc(CNC(=O)Cn2ccc3cc(S(=O)(=O)N4CCCC4)ccc32)c(OC)c1,IkBa stabilization activation,[1],inconclusive: -0.333% [signal inhibitor]
COc1ccc(OC)c(-c2nnc3n(CCc4ccccc4)c(=O)c4ccccc4n23)c1,IkBa stabilization activation,[1],inconclusive: -0.541% [signal inhibitor]
O=C(O)CCc1ccc(-c2ccccc2)o1,Potency,[1],"inconclusive: 31.6 µM [rising, partial curve]"
CCSc1nc2c(c(=O)[nH]c(=O)n2C)n1C/C=C(/C)Cl,IkBa stabilization activation,[1],inactive
O=C(NC1CCCC1)C(c1ccc(O)cc1)N(CC1CCCO1)C(=O)C1COc2ccccc2O1 (stereo not drawn),IkBa stabilization activation,[1],inconclusive: -1% [signal inhibitor]
COc1ccc(CCNc2oc(COc3ccc(F)cc3)nc2C#N)cc1,IkBa stabilization activation,[1],inconclusive: 2.45% [signal inhibitor]
COc1ccc(-c2csc3nc(-c4ccc(F)cc4)oc(=O)c23)cc1OC,IkBa stabilization activation,[1],inconclusive: 0.21% [signal inhibitor]
Cc1ccc(C(=O)OCC(=O)Nc2sc3c(c2C#N)CCCCC3)cc1NC(=O)c1ccco1,IkBa stabilization activation,[1],inconclusive: 1.45% [signal inhibitor]
Cc1ccc(-c2noc(CSc3nnc(C)n3-c3ccc(F)cc3)n2)cc1,IkBa stabilization activation,[1],inconclusive: -0.818% [signal inhibitor]
CCOc1cccc(NC(=O)C2CC(=O)N(C)C(=Nc3cccc(F)c3)S2)c1 (stereo not drawn),IkBa stabilization activation,[1],inconclusive: 2.36% [signal inhibitor]
